From PubChem BioAssay AID2546 (National Center for Advancing Translational Sciences (NCATS), 2010)
About 11,000 (3.5%) of roughly 310,000 compounds were called active. Inconclusive means that the source gave no clear call. Such entries were picked first, then a sample of the others. Calls follow the shape of the dose curve; as a rule, active = well fitted inhibition curve with a large enough effect; inconclusive = small, poorly fitted or top-dose-only effect, or effect the other way; inactive = flat fitted curve, though single readings scatter. Potencies of inconclusive entries are left out as doubtful fits.

experiment: VP16 counterscreen qHTS for inhibitors of ROR gamma transcriptional activity; details: Drosophila S2 Gal4-VP16 UAS-luciferase, luminescence, 20 h; activity, negative = inhibition: at 53.6 µM (top of the series);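 also: Gal4-VP16 expression switched on by copper sulfate through the metallothionein promoter; nearly all actives have a fitted effect of over 50% in size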
% is scaled to controls: 0 for no effect and ±100 for the full control effect; potency is read from the fitted curve at half-maximal effect; tags tell the direction and shape of the fitted curve.

Row | Compound | Potency | activity, negative = inhibition
1 | O=Nc1c(-c2c(O)[nH]c3ccccc23)[nH]c2ccccc12 | inconclusive [inhibitor, single point] | 
2 | CN(CC(=O)Nc1ccc(Cl)c(C(F)(F)F)c1)C(=O)CC1Sc2ccccc2NC1=O (centres undefined) | inconclusive [inhibitor, single point] | 
3 | COc1ccc(NC(=O)O/N=C2/CCCc3ccc(OC)cc32)cc1 |  | inactive: 2.47%
4 | CCOC(=O)C1=C(C)NC(C)=C(C(=O)OCC)C1c1ccc(C)o1 |  | inactive: 7.99%
5 | O=C(Nc1cccc(Cl)c1)C1C2CCC3C(CCC21)C3(Cl)Cl (centres undefined) | inconclusive [inhibitor, single point] | 
6 | Cc1ccc2nc(-c3ccc(NC(=O)CSc4nccc(=O)[nH]4)cc3)sc2c1 | inconclusive [inhibitor, partial curve] | 
7 | Cc1cc(C(F)(F)F)c2c(N)c(C(=O)Nc3cc(C)on3)sc2n1 | active: 3.98 µM | 
8 | Fc1ccc(Nc2ccc3ccccc3n2)c(F)c1 | inconclusive [inhibitor, full curve, poor fit] | 
9 | O=C(c1cc(-c2ccc(Cl)cc2)n(-c2ccc(Cl)c(Cl)c2)n1)N1CCOCC1 | inconclusive [inhibitor, single point] | 
10 | CCCCC(=O)Nc1cccc(NC(=O)c2cccc([N+](=O)[O-])c2)c1 |  | inactive: 2.87%
11 | COc1ccc(/C=C/C(=O)NC(=S)NNC(=O)c2cccs2)cc1 | active: 22.4 µM | 
12 | CCCn1nnc(NC(=O)c2ccc3c(c2)OCO3)n1 |  | inactive: -16.4%
13 | CCOC(=O)c1c(C)[nH]c(C(=O)CN2C(=O)NC(C)(c3ccc(C)cc3)C2=O)c1C (centres undefined) | inconclusive [inhibitor, partial curve, poor fit] | 
14 | COc1cc(/C=C(\C#N)C(N)=O)ccc1OS(=O)(=O)c1ccc(C)cc1 | inconclusive [activator, single point] | 
15 | COc1cc(NC(=O)COc2cc3oc(=O)cc(C)c3cc2Cl)cc(OC)c1OC | inconclusive [inhibitor, single point] | 
16 | CC(C)(C)OC(=O)N1CC(O)CC1C(=O)OCC(=O)c1ccc(-c2ccccc2)cc1 (centres undefined) |  | inactive: -5.05%
17 | FC(F)(F)c1cccc(NC(=S)NCc2ccccn2)c1 | active: 7.08 µM | 
18 | Cc1cccc(NC(=O)N2CCC(c3nc4ccccc4o3)CC2)c1 |  | inactive: 5.15%
19 | O=C(Cn1c(-c2ccccc2)c[n+]2ccsc12)c1ccc([N+](=O)[O-])cc1 | inconclusive [activator, full curve] | 
20 | C=CCNC(=O)c1onc(CSc2cc(C)cc(C)c2)c1C(=O)O | inconclusive [inhibitor, single point] | 
21 | S=c1[nH]nc(C2CCCCC2)n1/N=C/c1ccccc1Cl | inconclusive [inhibitor, single point] | 
22 | Cc1ccc(C)c(NC(=S)c2nc3ccccc3s2)c1 | active: 0.708 µM | 
23 | Cc1ccc(CNC(=O)CC2(CC3=NS(=O)(=O)c4ccccc4N3)CCCC2)cc1 | inconclusive [inhibitor, full curve, poor fit] | 
24 | Cc1cccc(NC(=S)NC(C)(C)CC(C)(C)C)c1 | active: 8.91 µM | 
25 | Nc1ccccc1SSc1ccccc1N | inconclusive [inhibitor, single point] | 

Row | Compound | Potency | activity, negative = inhibition
26 | CCc1nnc(NC(=O)c2nc(S(=O)(=O)Cc3ccc(C)cc3)ncc2Cl)s1 | active: 11.2 µM | 
27 | COc1ccc(-n2cnnc2SCc2ncc(-c3ccccc3)o2)cc1 |  | inactive: 8.47%
28 | CN1CCCC(OC(=O)c2ccc(C#N)cc2)C1 (centres undefined) |  | inactive: -4.03%
29 | CCc1ccc(C(=O)N/N=C/c2ccc(Cl)cc2Cl)nc1 | inconclusive [inhibitor, single point] | 
30 | CCn1c2ccccc2c2cc(NC(=O)c3cccc([N+](=O)[O-])c3)ccc21 |  | inactive: -11.2%
31 | CN(Cc1ccccc1)C(=S)NC(=O)c1ccc(-c2ccccc2)cc1 | active: 0.0891 µM | 
32 | CCOc1ccccc1N1CCN(c2ncnc3scc(-c4ccc(OC)cc4)c23)CC1 |  | inactive: -0.983%
33 | CCC(=O)NNc1nc2c(C)cccc2s1 | inconclusive [inhibitor, single point] | 
34 | CCn1c(=O)c2cc(C(=O)NCCOC)sc2c2ccccc21 |  | inactive: 7.35%
35 | O=C(Nc1ccc(Cl)cc1)Nc1cc([N+](=O)[O-])ccc1F | inconclusive [inhibitor, single point] | 
36 | Cc1ccc(C(=O)NC(C#N)=C(Cl)Cl)cc1 | active: 10 µM | 
37 | C(=N\n1cnnc1)/c1ccccn1 | inconclusive [inhibitor, full curve] | 
38 | O=S(=O)(c1ccc(NC(=S)N2CCN(c3ccccc3F)CC2)cc1)N1CCOCC1 | inconclusive [inhibitor, single point] | 
39 | CC(c1ccccc1)n1c(-c2ccncc2)n[nH]c1=S (centres undefined) | inconclusive [inhibitor, single point] | 
40 | COC(=O)c1cc2cc(NS(=O)(=O)c3ccc(C)cc3)ccc2s1 | inconclusive [inhibitor, single point] | 
41 | COc1ccc(C(=O)NC(=S)NNC(=O)COc2ccccc2)cc1 | inconclusive [inhibitor, single point] | 
42 | COc1ccc(N2CCN(C(=O)CCCn3c(=S)[nH]c4cc5c(cc4c3=O)OCO5)CC2)cc1 | inconclusive [inhibitor, single point] | 
43 | C=CCn1c(SCC(=O)NC(=O)NCc2ccco2)nc2sc(C)c(C)c2c1=O | inconclusive [inhibitor, single point] | 
44 | Cc1ccc(NC(=S)NNC(=O)c2ccc(N3CCOCC3)c([N+](=O)[O-])c2)cc1C | inconclusive [inhibitor, single point] | 
45 | O=C(Cc1ccccc1)Nc1ccc(NC(=O)c2ccccc2)c(Cl)c1 |  | inactive: 19.3%
46 | S=C(Nc1ccccc1Oc1ccccc1)Nc1cccc(Cl)c1Cl | inconclusive [inhibitor, single point] | 
47 | FC(F)(F)c1ccc(NC(=S)NC2CCCCC2)cc1 | inconclusive [inhibitor, single point] | 
48 | Nc1ccc(C(=O)N/N=C/c2cn(Cc3ccccc3)c3ccccc23)cc1 | inconclusive [inhibitor, single point] | 
49 | Cc1ccc(-n2c(C3CC3c3ccc(Cl)cc3)n[nH]c2=S)cc1 (centres undefined) | active: 5.62 µM | 
50 | C#Cc1cccc(NC(=O)Cc2cccs2)c1 | inconclusive [activator, single point] | 

Row | Compound | Potency | activity, negative = inhibition
51 | COc1ccc(/C=N/NC(=O)c2ccn[nH]2)cc1Cn1cc([N+](=O)[O-])cn1 |  | inactive: 3.76%
52 | Cc1cc(C)c2nc(N(CCN(C)C)C(=O)c3ccc4ccccc4c3)sc2c1 | inconclusive [inhibitor, single point] | 
53 | COc1cc(/C=C2\SC(=S)N(CCC(=O)NC3CCCC3)C2=O)cc(OC)c1OC | inconclusive [inhibitor, single point] | 
54 | Cc1cccc(-c2nc(CS(=O)CC(=O)NCC3CCCO3)c(C)o2)c1 (centres undefined) | inconclusive [inhibitor, single point] | 
55 | Cc1ccc(-c2c(C#N)c(N)n3c(nc4ccccc43)c2C#N)cc1 | inconclusive [inhibitor, partial curve, poor fit] | 
56 | Clc1cccc(/C=N/Nc2ncnc3ccccc23)c1 | active: 4.47 µM | 
57 | COCC(=O)n1nc(-c2ccccc2)nc1NCc1cccs1 | inconclusive [activator, single point] | 
58 | C=CCc1cccc2cc(C(=O)NC3CCCC3)c(=O)oc12 | inconclusive [activator, single point] | 
59 | CC(C(=O)NC1CCS(=O)(=O)C1)N1C(=O)/C(=C/c2ccc(Cl)cc2)SC1=S (centres undefined) | inconclusive [inhibitor, single point] | 
60 | Cc1cccc(C(=O)Oc2cccc3c(O)cccc23)c1 | inconclusive [inhibitor, single point] | 
61 | Cc1cc(C(=O)NCc2cc(C(=O)O)co2)co1 |  | inactive: 0.46%
62 | CCOC(=O)c1c(C)n(-c2ccc(C)cc2)c2c(C(C(C)=O)C(=O)O)c(Br)c(O)c(O)c12 (centres undefined) |  | inactive: -8.12%
63 | CCCC/C=C/[C@H](c1ccccc1)[C@H](CO)Cc1ccc([N+](=O)[O-])cc1 | inconclusive [inhibitor, single point] | 
64 | O=C(NCCCl)c1ccc(OCc2ccccc2)cc1Cl | inconclusive [activator, partial curve, poor fit] | 
65 | CC(NC(=S)Nc1ccccc1C(F)(F)F)C1CC2CCC1C2 (centres undefined) | active: 10 µM | 
66 | Cc1ccc(OC(C)C(=O)Nc2ccncc2)cc1 (centres undefined) | active: 17.8 µM | 
67 | O=C(Nc1ccn(Cc2ccc(Cl)cc2)n1)c1ccccc1 | inconclusive [activator, partial curve] | 
68 | O=C(CCl)Nc1cccc(S(=O)(=O)N2CCCCCC2)c1 | inconclusive [inhibitor, single point] | 
69 | CC1(C)CC2(CCO1)OC(=O)CC2C(=O)Nc1ccccc1Cl (centres undefined) |  | inactive: 2.66%
70 | Oc1nc(Nc2ccc(F)cc2)sc1/C=C1\C=Nc2ccccc21 |  | inactive: -1.1%
71 | CN(C)S(=O)(=O)N(CC(=O)NCCSCc1ccccc1)c1ccccc1 |  | inactive: -13.6%
72 | O=C1c2cccc(OCc3ccc(F)cc3)c2CCN1Cc1ccc(F)cc1 | inconclusive [inhibitor, single point] | 
73 | Cc1ccc(C)c(OCC(=O)NCCNC(=O)COc2cc(C)ccc2C)c1 |  | inactive: -5.7%
74 | CN(Cc1ccco1)c1ccnc(-c2cccc(NS(C)(=O)=O)c2)n1 | inconclusive [activator, partial curve, poor fit] | 
